According to the supplement of paper PMC10126150:
Sequences with one replicate were seen in a single cluster, so their values are uncertain.

Tested on: ATP
Experiment: switch fluorescence ratio, 500 uM ATP over buffer (Cy3 cluster intensity, sum of 5 cycles each) (fold (ratio)); higher = stronger signal-on switching upon ATP binding; sequences stand for … in TCGTCGGCAGCGTCAGATGTGTATAAGAGACAGTTTTTTTTTTTTTTTTTTTTTTTTT…TC
Conditions: aptamer strand: ATP DNA aptamer (quencher-CACCTGGGGGAGTATTGCGGAGGAAGG + anchor), 100 nM annealed; ATP concentration: 500 uM; one replicate
Outline: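 Exposure to 500 uM ATP lasted 15 min at 22 °C before imaging, and a selection-buffer image was taken beforehand, for Cy3-labelled switching-strand clusters on a modified Illumina MiSeq flow-cell annealed to 100 nM quencher-labelled ATP aptamer. Five buffer/ATP cycles were run with NaOH stripping and re-annealing between them. The fluorescence ratio per cluster is summed target-cycle over summed buffer-cycle Cy3 intensity, averaged per switch-domain sequence. Clusters outside 100-1000 RFU were excluded.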

Row | Sequence | switch fluorescence ratio
1 | GAGGCGCATA | 1.09
2 | TAGATATGGC | 0.989
3 | GTTGTAATCT | 1.03
4 | TAAGATTAAC | 1.04
5 | CAACCGGAGG | 0.984
6 | AGACAGCATC | 1.11
7 | TGTGGGTACA | 1
8 | GTCACACTTT | 0.966
9 | GTCTACTTCG | 1.03
10 | TTATTAACAT | 1.05
11 | GGTGATACTT | 1.11
12 | AGGCATGAAG | 0.979
13 | CGTGCGAGAT | 1.05
14 | GCGAAAGTGT | 1
15 | TGTGGGT | 0.97
16 | GGAGTGGGGT | 0.978
17 | GAGATTACGC | 1.02
18 | TCTGTGTTTG | 0.959
19 | TGGGCCAGGT | 1.5
20 | ATTCGAGACC | 1
21 | AGGAGATGCG | 1.01
22 | ATTACTAAAG | 1.05
23 | TGTTATCGCC | 0.971
24 | ACTTCTAAGG | 1.05
25 | TATAGCTTAT | 1.05
26 | TACCGCCTGA | 1.08

Row | Sequence | switch fluorescence ratio
27 | AGAGAGGCGT | 0.996
28 | GACAATTAAT | 0.963
29 | ACTCCTGACG | 0.989
30 | TCACACGATA | 1.28
31 | CCTGGGGCCT | 1.03
32 | AACTTTTGCA | 1.04
33 | TACGGATCTC | 1.01
34 | GCTTTAGCTG | 1.01
35 | AGGTTCCGAG | 1.1
36 | TTCCCAGCCT | 1.12
37 | AACTGTACTG | 1.47
38 | TAGTGATC | 0.922
39 | ATAAAGTCAG | 0.984
40 | TTCGGTGCGT | 1
41 | ATAAGTGTTC | 0.959
42 | GCTCAATGCC | 1.01
43 | CCCAGTGGGC | 1.08
44 | CATTCTGATA | 1.01
45 | CTTCCTTCGA | 4.91
46 | GATTTCAGCG | 0.976
47 | CTCGTACTGG | 1.02
48 | GTACGTTGCG | 1.03
49 | TGCCCATGGT | 1.11
50 | GAATTTTTAT | 0.992
51 | TGTATTCTGG | 0.999
52 | GGTAAATTCG | 1.01

Row | Sequence | switch fluorescence ratio
53 | TATTATACCG | 1
54 | TAGGGCTC | 1
55 | TTCCGTCGCG | 1.37
56 | TTTCTACTTC | 1.03
57 | GCGGTGTTTG | 0.961
58 | CCGGCAGCGC | 1.61
59 | TTAAGTGAGT | 1.02
60 | TTTGCTATCC | 1.14
61 | CCCAGACGAT | 1.08
62 | AGGAAAAACG | 1.05
63 | GCCCCGTCCT | 1.01
64 | CGGTATGCAG | 0.883
65 | TGGGTCGTGT | 1.04
66 | GCCTTCAAAC | 1.13
67 | TCCGTGCATC | 2.34
68 | TCAATTAGCT | 1
69 | GAGGTCACTA | 1
70 | TAGCAAGTTT | 1.06
71 | CCACGCCGCT | 1.15
72 | CAATCGAATC | 1.02
73 | AGAGAAAAGG | 0.975
74 | GGGTAAACCG | 1.04
75 | CTACCTCAGG | 2.03
76 | AAAGATACGA | 1.14
77 | TGCAACATGC | 1.05
